Out of some 52,000 compounds screened, about 4,300 (8.3%) were called active. No stated cut-off is given here; in the data, active means survival mostly below about 52% (no sharp cut-off); inactive means mostly above about 56%. Some of the results follow.

The assay deals with DeltatarO mutant. In words: growth inhibition of S. aureus wild type versus tarO mutant, primary screen, teichoic acid synthesis inhibitors, RN4220, OD600 (AID 463173). The settings on record: OD600, 18 h, hits give low values, screened at 18.75 µg/mL (by protocol).
Consider `CC(O)CNc1nc2c(c(=O)n(Cc3ccc(Cl)cc3)c(=O)n2C)n1C` (stereo unspecified), for which the survival is inactive: 145%. In the case of `COc1ccc(CCNC(=O)CCc2c(C)c3cc4c(C)coc4c(C)c3oc2=O)cc1OC`, the survival is inactive: 92%. In the case of `Cc1ccccc1CSc1ncc(CO)n1Cc1ccc(F)cc1`, the survival was inactive: 124%. Take `CCOc1ccc(-c2cc(-c3nc(-c4ccc(OC)c(OC)c4)no3)[nH]n2)cc1`: the survival was inactive: 72%. As for `Cc1cc(C)nc(SCC(=O)Oc2ccc3oc(=O)cc(C)c3c2)n1`, the survival is inactive: 95%. In the case of `CC(=O)c1ccc(NC(=O)CC(c2cccs2)N2Cc3ccccc3C2=O)cc1` (stereo unspecified), the survival was inactive: 58%. Turning to `COc1ccc(Cc2nc3ccccc3n2Cc2ccccc2F)cc1`, the survival is active: 18%.

Turning to `CCN(C(=O)Cn1cnc2sc(C)c(S(=O)(=O)N3CCN(c4ncccn4)CC3)c2c1=O)c1ccccc1F`, the survival was inactive: 57%.

Take `CCOc1ccc(-c2nnc(SCC(=O)NCc3ccccc3)o2)cc1`: the survival is inactive: 93%. In the case of `O=C1CN(C(=O)c2ccc(S(=O)(=O)N3CCCC3)cc2)C(c2ccccc2)c2cc(Br)ccc2N1` (stereo unspecified) it was inactive: 61%. In the case of `Cc1ccc(NC(=O)CN2CCSc3ccc(S(=O)(=O)N4CCCC4)cc32)cc1C`, the survival was inactive: 54%. On to `CC(C)(C)C(=O)NC1(C(F)(F)F)C(=O)Nc2c1c(=O)[nH]c(=O)n2-c1ccccc1` (stereo unspecified), for which the survival was inactive: 56%. As for `CCOc1ccc(-n2nc3cc(C)c(NC(=O)c4cc(OCC)c(OCC)c(OCC)c4)cc3n2)cc1`, the survival was inactive: 137%.

Regarding `COc1cc(OC)c(NS(=O)(=O)c2cc(-c3cnc(C4CC4)o3)ccc2C)cc1Cl`, the survival was inactive: 55%. Consider `Cc1nnc(N2CCC(C(=O)NCCc3ccccc3)CC2)c2nn(-c3ccc(Cl)cc3)c(C)c12`, for which the survival is inactive: 73%. Consider `Cc1cc2c(cc1S(=O)(=O)CCC(=O)NCCc1ccccc1)OCC(=O)N2`, for which the survival is inactive: 87%. Next, `CCC1CN(C(=O)Nc2ccc(C)c(F)c2)c2ccccc2S1` (stereo unspecified): inactive: 125%; `CCc1ccc(CNC(=O)CCc2c(C)nn(-c3ccc(N4CCCC4)nn3)c2C)cc1`: inactive: 77%. In the case of `COc1cc(NC(=O)C2=CC(c3ccc(F)cc3)=NS(=O)(=O)N2C)cc(OC)c1OC` it was inactive: 73%. As for `CCN(CC)c1cc(C)c2cc(NC(=O)/C=C/c3cc(OC)c(OC)c(OC)c3)ccc2n1`, the survival was inactive: 61%.

In the case of `CCN(Cc1ccccc1)C(=O)C1CCN(S(=O)(=O)c2ccc3c(c2)CCCN3C(C)=O)CC1`, the survival is inactive: 80%.

Regarding `O=C(CSc1nccn1Cc1ccc(F)cc1)Nc1nc2ccccc2s1`, the survival was inactive: 83%. In the case of `COc1ccc(CNC(=O)CCc2c(C)nc3c(c(C)nn3-c3ccccc3)c2C)cc1` it was inactive: 78%; in that of `CCOC(=O)c1c(C)n(-c2ccc(OC)cc2)c2ccc(OC(=O)COc3ccccc3)cc12`, inactive: 55%; in that of `Cc1ccc(-n2ncc3c(Nc4cccc(Cl)c4)ncnc32)c(C)c1`, inactive: 87%.

For the molecule `O=C(Cn1nnnc1-c1ccccc1F)Nc1ccc(OC(F)(F)F)cc1`, the survival was inactive: 84%. `COc1cccc(/C=C/c2nc(C#N)c(N3CCC(C(N)=O)CC3)o2)c1`: the survival was inactive: 75%. Consider `COc1ccc(Br)cc1S(=O)(=O)Nc1cc(-c2cn3ccccc3n2)ccc1C`, for which the survival was active: 43%. For the molecule `Cc1ccc(C2C=C(c3ccccc3)Nc3nc(NS(=O)(=O)c4ccccc4)nn32)cc1` (stereo unspecified), the survival was inactive: 68%. With `CN(Cc1ccccc1)C(=O)c1ccc(CSc2nc3cccnc3n2Cc2ccccc2F)cc1`, the survival is inactive: 105%. Next, `COc1ccc(NC(=O)Cn2c(=O)n(CCC(=O)NCC3CCCO3)c(=O)c3cc(OC)c(OC)cc32)cc1` (stereo unspecified): inactive: 72%; `COc1ccccc1Nc1sc(C(=O)c2ccc(F)cc2)c(N)c1S(=O)(=O)c1ccc(C)cc1`: inactive: 55%. With `CCc1cccc(-n2nnc(-c3nsc(NC(=O)c4cccc(OC)c4)n3)c2C)c1`, the survival is inactive: 89%. `Cc1cccc(CC(=O)N2CC(=O)Nc3ccc(Br)cc3C2c2ccc(F)cc2)c1` (stereo unspecified): the survival is active: 43%. As to `CNC(=O)CC(=O)NC`, the survival is inactive: 103%. Take `Cc1cc2c(cc1S(=O)(=O)Nc1cccc(C#N)c1)OCC(=O)N2`: the survival was inactive: 93%.

For `O=C(Cn1ncc2c3ccccc3n(Cc3ccccc3F)c2c1=O)NCc1ccccc1Cl`, the survival is inactive: 78%. Turning to `Nc1nc2ccccc2n1C(=O)Cc1ccccc1`, the survival is inactive: 88%. In the case of `COc1ccc(-n2nc(C(=O)N3CCCCC3C)c3c4ccccc4n(C)c3c2=O)cc1Cl` (stereo unspecified) it was inactive: 87%. In the case of `Cc1coc2c(C)c3oc(=O)c(CCC(=O)NCCc4ccccc4F)c(C)c3cc12` it was inactive: 57%.

In the case of `O=C(c1cccnc1)N1CCN(CCN2C(=O)C3C4C=CC(C4)C3C2=O)CC1` (stereo unspecified), the survival is inactive: 89%. In the case of `CC(C)N(C(=O)CSc1cn(CC(=O)N2CCCCCC2)c2ccccc12)C(C)C` it was inactive: 68%; in that of `CCOC(=O)c1ccc(NC(=O)Cn2c(=O)cc(C)c3c(C)nn(-c4ccc(CC)cc4)c32)cc1`, inactive: 71%. As to `COc1ccc(CNC(=O)CN(C)S(=O)(=O)c2ccc3nc(C)sc3c2)cc1`, the survival is inactive: 103%. As to `COc1cccc(C(=O)Nc2ccccc2C(=O)OCc2cc(=O)n3c4c(sc3n2)CCCC4)c1`, the survival is inactive: 57%. Consider `Cc1nn2c(C)c(C(=O)NC(C)c3ccccc3)cnc2c1-c1ccc(F)cc1` (stereo unspecified), for which the survival was inactive: 128%. In the case of `O=C1CC2CCCC(CN1)N2CC(=O)NCc1ccco1` (stereo unspecified), the survival was inactive: 93%. As to `COc1ccc(NC(=O)c2ccco2)cc1NC(=O)C(C)(C)Oc1ccc(Cl)cc1`, the survival is active: 40%. Turning to `CCOc1ccc(NC(=O)Cn2cnc3sc(C)c(S(=O)(=O)N4CCN(c5ccccc5OC)CC4)c3c2=O)cc1`, the survival was inactive: 64%. As to `CCC(=O)N1CCCc2cc(S(=O)(=O)N3CCC(C(=O)NCc4ccc(F)cc4)CC3)ccc21`, the survival was inactive: 97%.

For `O=C(c1ccc(Cl)cc1)C1CCN(C(=O)N2CCOCC2)CC1`, the survival was inactive: 66%. `Cc1cccc(C)c1-n1ncc(C(=O)O)c1C1CCN(C(=O)OC(C)(C)C)CC1`: the survival is inactive: 88%. Take `COc1ccc(-c2noc(-c3ccc(N4CCCC4)c([N+](=O)[O-])c3)n2)cc1OC`: the survival is inactive: 59%.

As for `CCc1ccc(-n2nc(C)c3c(C(=O)N4CCN(c5ccccc5)CC4)cc(C)nc32)cc1`, the survival was inactive: 94%. For `CNC(=O)CSc1nnc(-c2ccco2)n1CC1CCCO1` (stereo unspecified), the survival is inactive: 113%. For the molecule `CCOc1ccc(CNC(=O)C2CCCN(c3nnc(C)c4c(C)n(-c5ccccc5)nc34)C2)cc1` (stereo unspecified), the survival is inactive: 72%. For the molecule `CCOc1cc(C2NC(=O)c3c(sc4c3CCN(C)C4)N2)ccc1OC(=O)c1ccc(Br)cc1` (stereo unspecified), the survival is inactive: 63%.

With `COCCCNC(=O)CSc1nc2c(sc3ccccc32)c(=O)n1CCc1ccc(OC)c(OC)c1`, the survival was active: -4%. With `O=C(Nc1ccc(C(=O)N2CCCCC2)cc1)C1CCCCC1`, the survival was inactive: 86%. In the case of `CN(C)CCNC(=O)Cn1ccc2cc(S(=O)(=O)N3CCCCCC3)ccc21` it was inactive: 82%; in that of `Cc1cccc(Cn2c(-c3cccc(Br)c3)nc3ccccc32)c1`, inactive: 122%. Next, `CCOc1ccccc1NC(=O)CCc1c(C)nn(-c2ccc(N3CCCCC3)nn2)c1C`: inactive: 74%; `COc1ccc(C(=O)CSc2ncn(-c3ccccc3)n2)cc1OC`: inactive: 55%; `COc1ccccc1C(=O)NC1(C(F)(F)F)C(=O)Nc2c1c(=O)[nH]c(=O)n2-c1ccc(F)cc1` (stereo unspecified): inactive: 190%.

Turning to `Cc1cc(Cl)ccc1OCC(=O)N(Cc1ccco1)Cc1ccccc1F`, the survival is inactive: 78%. Consider `COc1ccc(CNC(=O)CSc2ncc3c(n2)-c2ccc(Cl)cc2N(Cc2ccccc2)S3(=O)=O)cc1`, for which the survival is inactive: 49%. For `Cc1ccccc1C(=O)NCC1COc2ccccc2O1` (stereo unspecified), the survival is inactive: 81%. With `COc1ccc(Cl)cc1NC(=O)c1cn(C2CCCC2)c(=O)c2c1c1ccccc1n2C`, the survival is inactive: 72%. For the molecule `CC(=NCCN1CCNCC1)C1=C(O)CC(C)(C)CC1=O`, the survival was inactive: 90%. Take `Cc1cccc(N(CC(=O)Nc2ccccc2C(F)(F)F)S(=O)(=O)c2ccccc2)c1C`: the survival was inactive: 104%. In the case of `O=C(NCC(c1cccs1)S(=O)(=O)c1ccccc1)c1ccc(C(F)(F)F)cc1` (stereo unspecified) it was inactive: 90%. As for `COc1ccc(OC)c(C2CC(=O)Oc3c2c(=O)n(C)c2ccccc32)c1` (stereo unspecified), the survival is inactive: 67%.

Regarding `Cc1ccc(S(=O)(=O)c2cn(Cc3ccccc3)c3cc(N4CCCCC4)c(F)cc3c2=O)cc1`, the survival is inactive: 91%. On to `O=C(NCc1ccco1)c1ccc(Cn2c(SCc3ccccc3)nc3cccnc32)cc1`, for which the survival is inactive: 69%. Turning to `COc1cc(OC)c(NC(=O)CCS(=O)(=O)c2ccc3c(c2)oc(=O)n3C)cc1Cl`, the survival was inactive: 78%.

With `COc1ccc(NC(=O)CSC2=Nc3ccccc3C3=NC(CC(=O)NCCc4ccccc4)C(=O)N23)cc1` (stereo unspecified), the survival was inactive: 74%. In the case of `O=C(NC1CCCCC1)N1CCCC(c2nc(-c3ccc(Cl)cc3)no2)C1` (stereo unspecified), the survival is inactive: 97%. `CC(C)(C)C1CCc2c(sc(NC(=O)c3cccc(Cl)c3)c2C(=O)NCc2ccco2)C1` (stereo unspecified): the survival was inactive: 113%. For `CC(=O)c1ccc(NC(=O)C2CCN(c3nnc(C)c4c(C)n(-c5ccccc5)nc34)CC2)cc1`, the survival was inactive: 74%. Take `Cc1ccc(-c2cc(C(=O)N3CCN(S(=O)(=O)c4ccc(Br)cc4)CC3)[nH]n2)c(C)c1`: the survival was inactive: 75%. As for `CC(C)OCCCn1c(=O)c2ccccc2n2c(-c3ccccc3)nnc12`, the survival was inactive: 105%. In the case of `CCc1nn2c(=O)cc(COC(=O)Cc3ccccc3)nc2s1`, the survival was inactive: 72%. As for `CCc1ccc(-n2nc(CO)c(C(=O)NCCOC)n2)cc1`, the survival is inactive: 56%.

As to `CC(C(=O)NCC1(c2ccccc2)CCOCC1)N1CCCCC1` (stereo unspecified), the survival is inactive: 74%. Take `COc1ccc(OC)c(S(=O)(=O)N2CCC(n3c(C)nc4cccnc43)CC2)c1`: the survival was inactive: 73%. Take `CN(C(=O)CC(=O)Nc1ccc2nc3n(c(=O)c2c1)CCCCC3)c1ccccc1F`: the survival is inactive: 91%.

(Values after PubChem BioAssay AID463173 (ICCB-Longwood Screening Facility, Harvard Medical School, 2010).)
